Experimental data from US11178870B2 (priority 2017, dated 2021).

What was measured:
Assay type in all cases: in vivo
[1] = test system: Botrytis cinerea; test: Test Example B: Gray mold on tomato; conditions: for Test B control value (gray mold on tomato): class of control value, Table 7; for control value, Test B (gray mold on tomato): Table 7, Test B; for Test B control value: Gray mold on tomato
[2] = test system: Blumeria graminis f. sp. hordei; test: Test Example D: Powdery mildew on barley; conditions: for Test D control value (powdery mildew on barley): class of control value, Table 7; for control value, Test D (powdery mildew on barley): Table 7, Test D; for Test D control value: Powdery mildew on barley
[3] = test system: Plasmopara viticola; test: Test Example G: Downy mildew on vine; conditions: for Test G control value (downy mildew on vine): 250 ppm spray, investigated 7 to 10 days after inoculation; for Test G control value (downy mildew on vine) / Test G control value: 2.5 ml/pot; for control value, Test G (downy mildew on vine): 250 ppm sprayed (2.5 ml/pot) before inoculation, assessed 7 to 10 days after inoculation; for Test G control value: Downy mildew on vine, 250 ppm sprayed, 7 to 10 days after inoculation
[4] = test system: Alternaia brassicicola; test: Test Example C: Alternaria sooty spot on cabbage; conditions: for Test C control value (Alternaria sooty spot on cabbage): class of control value, Table 7; for control value, Test C (Alternaria sooty spot on cabbage): Table 7, Test C; for Test C control value: Alternaria sooty spot on cabbage
[5] = test system: Puccinia recondita; test: Test Example E: Brown rust on wheat; conditions: for Test E control value (brown rust on wheat): class of control value, Table 7; for control value, Test E (brown rust on wheat): Table 7, Test E; for Test E control value: Brown rust on wheat

## O=c1ccc(-c2sccc2Br)c(-c2c(F)cccc2F)n1CC(F)F [Compound 418]
[1]
  Test B control value (gray mold on tomato): H (H shows the control value more than 50%)
[2]
  Test D control value (powdery mildew on barley): H (H shows the control value more than 50%)
[3]
  Test G control value (downy mildew on vine): L (L shows the control value of 50% or less)
[4]
  Test C control value (Alternaria sooty spot on cabbage): H (H shows the control value more than 50%)
[5]
  Test E control value (brown rust on wheat): H (H shows the control value more than 50%)

## CCn1c(-c2ccccc2Cl)c(-n2cnc(Cl)c2Cl)ccc1=O [Compound 208]
[1]
  control value, Test B (gray mold on tomato): H (H shows the control value more than 50%)
[2]
  control value, Test D (powdery mildew on barley): H (H shows the control value more than 50%)
[3]
  control value, Test G (downy mildew on vine): L (L shows the control value of 50% or less)
[4]
  control value, Test C (Alternaria sooty spot on cabbage): H (H shows the control value more than 50%)
[5]
  control value, Test E (brown rust on wheat): H (H shows the control value more than 50%)

## CCn1c(-c2c(F)cc(F)cc2F)c(-n2cc([N+](=O)[O-])cn2)cc(Cl)c1=O [Compound 161]
[1]
  Test B control value: H (H shows the control value more than 50%)
[2]
  Test D control value: L (L shows the control value of 50% or less)
[3]
  Test G control value: L (L shows the control value of 50% or less)
[4]
  Test C control value: H (H shows the control value more than 50%)
[5]
  Test E control value: H (H shows the control value more than 50%)

## Cc1cnn(-c2cc(Cl)c(=O)n(C)c2-c2c(F)cccc2F)c1Cl [Compound 187]
[1]
  control value, Test B (gray mold on tomato): H (H shows the control value more than 50%)
[2]
  control value, Test D (powdery mildew on barley): H (H shows the control value more than 50%)
[3]
  control value, Test G (downy mildew on vine): L (L shows the control value of 50% or less)
[4]
  control value, Test C (Alternaria sooty spot on cabbage): H (H shows the control value more than 50%)
[5]
  control value, Test E (brown rust on wheat): H (H shows the control value more than 50%)

## CCn1c(-c2c(F)cc(F)cc2F)c(-n2cc(Cl)c(C)n2)ccc1=O [Compound 141]
[1]
  Test B control value: H (H shows the control value more than 50%)
[2]
  Test D control value: H (H shows the control value more than 50%)
[3]
  Test G control value: L (L shows the control value of 50% or less)
[4]
  Test C control value: H (H shows the control value more than 50%)
[5]
  Test E control value: H (H shows the control value more than 50%)

## CCn1c(-c2c(F)cc(F)cc2F)c(-n2c(C)ccc2C)cc(Cl)c1=O [Compound 125]
[1]
  Test B control value: H (H shows the control value more than 50%)
[2]
  Test D control value: L (L shows the control value of 50% or less)
[3]
  Test G control value: L (L shows the control value of 50% or less)
[4]
  Test C control value: H (H shows the control value more than 50%)
[5]
  Test E control value: H (H shows the control value more than 50%)

## CCn1c(-c2ccccc2F)c(-n2cc(C)cn2)ccc1=O [Compound 259]
[1]
  control value, Test B (gray mold on tomato): L (L shows the control value of 50% or less)
[2]
  control value, Test D (powdery mildew on barley): H (H shows the control value more than 50%)
[3]
  control value, Test G (downy mildew on vine): L (L shows the control value of 50% or less)
[4]
  control value, Test C (Alternaria sooty spot on cabbage): H (H shows the control value more than 50%)
[5]
  control value, Test E (brown rust on wheat): H (H shows the control value more than 50%)

## O=c1c(Br)cc(-n2cc(F)cn2)c(-c2ccc(F)cc2F)n1CC(F)F [Compound 286]
[1]
  control value, Test B (gray mold on tomato): H (H shows the control value more than 50%)
[2]
  control value, Test D (powdery mildew on barley): H (H shows the control value more than 50%)
[3]
  control value, Test G (downy mildew on vine): L (L shows the control value of 50% or less)
[4]
  control value, Test C (Alternaria sooty spot on cabbage): H (H shows the control value more than 50%)
[5]
  control value, Test E (brown rust on wheat): H (H shows the control value more than 50%)

## CNn1c(-c2c(F)cccc2F)c(-n2ncc(C)c2Cl)cc(Br)c1=O [Compound 475]
[1]
  Test B control value (gray mold on tomato): H (H shows the control value more than 50%)
[2]
  Test D control value (powdery mildew on barley): H (H shows the control value more than 50%)
[3]
  Test G control value (downy mildew on vine): H (H shows the control value more than 50%)
[4]
  Test C control value (Alternaria sooty spot on cabbage): H (H shows the control value more than 50%)
[5]
  Test E control value (brown rust on wheat): H (H shows the control value more than 50%)

## Cc1cnn(-c2cc(Br)c(=O)n(C)c2-c2ccc(F)cc2Cl)c1Cl [Compound 515]
[1]
  Test B control value (gray mold on tomato): H (H shows the control value more than 50%)
[2]
  Test D control value (powdery mildew on barley): H (H shows the control value more than 50%)
[3]
  Test G control value (downy mildew on vine): H (H shows the control value more than 50%)
[4]
  Test C control value (Alternaria sooty spot on cabbage): H (H shows the control value more than 50%)
[5]
  Test E control value (brown rust on wheat): H (H shows the control value more than 50%)

## O=c1c(Cl)cc(-c2sccc2Cl)c(-c2c(F)cccc2F)n1CC(F)F [Compound 437]
[1]
  Test B control value (gray mold on tomato): H (H shows the control value more than 50%)
[2]
  Test D control value (powdery mildew on barley): H (H shows the control value more than 50%)
[3]
  Test G control value (downy mildew on vine): L (L shows the control value of 50% or less)
[4]
  Test C control value (Alternaria sooty spot on cabbage): H (H shows the control value more than 50%)
[5]
  Test E control value (brown rust on wheat): H (H shows the control value more than 50%)

## CCn1c(-c2ccccc2Cl)c(-n2cc(Cl)cn2)cc(Cl)c1=O [Compound 172]
[1]
  Test B control value: H (H shows the control value more than 50%)
[2]
  Test D control value: L (L shows the control value of 50% or less)
[3]
  Test G control value: L (L shows the control value of 50% or less)
[4]
  Test C control value: H (H shows the control value more than 50%)
[5]
  Test E control value: H (H shows the control value more than 50%)

## CCn1c(-c2ccc(F)cc2F)c(-n2cc(C)cn2)ccc1=O [compound 505, 6-(2,4-difluorophenyl)-1-ethyl-5-(4-methyl-1H-pyrazol-1-yl)pyridin-2(1H)-one]
[1]
  Test B control value (gray mold on tomato): H (H shows the control value more than 50%)
[2]
  Test D control value (powdery mildew on barley): H (H shows the control value more than 50%)
[3]
  Test G control value (downy mildew on vine): H (H shows the control value more than 50%)
[4]
  Test C control value (Alternaria sooty spot on cabbage): H (H shows the control value more than 50%)
[5]
  Test E control value (brown rust on wheat): H (H shows the control value more than 50%)

## COc1ccc(-c2c(-n3cc(Cl)cn3)cc(Br)c(=O)n2CC(F)F)c(Cl)c1 [Compound 240]
[1]
  control value, Test B (gray mold on tomato): H (H shows the control value more than 50%)
[2]
  control value, Test D (powdery mildew on barley): H (H shows the control value more than 50%)
[3]
  control value, Test G (downy mildew on vine): L (L shows the control value of 50% or less)
[4]
  control value, Test C (Alternaria sooty spot on cabbage): H (H shows the control value more than 50%)
[5]
  control value, Test E (brown rust on wheat): H (H shows the control value more than 50%)

## CCn1c(-c2c(F)cc(OC)cc2F)c(-c2c(Cl)cnn2C)cc(Cl)c1=O [Compound 29]
[1]
  Test B control value: H (H shows the control value more than 50%)
[2]
  Test D control value: H (H shows the control value more than 50%)
[3]
  Test G control value: L (L shows the control value of 50% or less)
[4]
  Test C control value: H (H shows the control value more than 50%)
[5]
  Test E control value: H (H shows the control value more than 50%)

## Cc1cnn(-c2cc(Cl)c(=O)n(CC(F)F)c2-c2ccccc2Br)c1Cl [Compound 407]
[1]
  Test B control value (gray mold on tomato): H (H shows the control value more than 50%)
[2]
  Test D control value (powdery mildew on barley): H (H shows the control value more than 50%)
[3]
  Test G control value (downy mildew on vine): L (L shows the control value of 50% or less)
[4]
  Test C control value (Alternaria sooty spot on cabbage): H (H shows the control value more than 50%)
[5]
  Test E control value (brown rust on wheat): H (H shows the control value more than 50%)

## CCn1c(-c2c(F)cc(OC)cc2F)c(-c2ocnc2Br)cc(Cl)c1=O [Compound 118]
[1]
  Test B control value: H (H shows the control value more than 50%)
[2]
  Test D control value: H (H shows the control value more than 50%)
[3]
  Test G control value: H (H shows the control value more than 50%)
[4]
  Test C control value: H (H shows the control value more than 50%)
[5]
  Test E control value: H (H shows the control value more than 50%)

## CCn1c(-c2ccccc2Cl)c(-n2cc(C)cn2)cc(Br)c1=O [Compound 180]
[1]
  Test B control value: H (H shows the control value more than 50%)
[2]
  Test D control value: H (H shows the control value more than 50%)
[3]
  Test G control value: L (L shows the control value of 50% or less)
[4]
  Test C control value: H (H shows the control value more than 50%)
[5]
  Test E control value: H (H shows the control value more than 50%)

## CCn1c(-c2ccc(F)cc2F)c(-n2cc(Cl)cn2)ccc1=O [Compound 145]
[1]
  Test B control value: H (H shows the control value more than 50%)
[2]
  Test D control value: H (H shows the control value more than 50%)
[3]
  Test G control value: L (L shows the control value of 50% or less)
[4]
  Test C control value: H (H shows the control value more than 50%)
[5]
  Test E control value: H (H shows the control value more than 50%)

## CCOc1cc(F)c(-c2c(-n3cc(F)cn3)cc(Cl)c(=O)n2CC)c(F)c1 [Compound 316]
[1]
  control value, Test B (gray mold on tomato): H (H shows the control value more than 50%)
[2]
  control value, Test D (powdery mildew on barley): H (H shows the control value more than 50%)
[3]
  control value, Test G (downy mildew on vine): L (L shows the control value of 50% or less)
[4]
  control value, Test C (Alternaria sooty spot on cabbage): H (H shows the control value more than 50%)
[5]
  control value, Test E (brown rust on wheat): H (H shows the control value more than 50%)

## CCn1c(-c2c(F)cc(F)cc2F)c(-n2cc(C(F)(F)F)cn2)cc(Cl)c1=O [Compound 155]
[1]
  Test B control value: L (L shows the control value of 50% or less)
[2]
  Test D control value: L (L shows the control value of 50% or less)
[3]
  Test G control value: L (L shows the control value of 50% or less)
[4]
  Test C control value: H (H shows the control value more than 50%)
[5]
  Test E control value: L (L shows the control value of 50% or less)
